# Laboratory results as given in paper PMC4336329 (PLoS ONE, 2015).
# In all, about 310,000 compounds went through this assay and about 2,200 (0.71%) showed an effect of 50% or more. Effects have a minus sign here. The list shows a part of the results.
# Biological target: human ether-à-go-go-related gene (hERG) potassium channel (human, UniProt Q12809)
# Experiment: primary screen, population patch clamp on CHO cells stably expressing hERG
# human ether-à-go-go-related gene (hERG) potassium channel, sequence (Q12809 whole entry, looked up): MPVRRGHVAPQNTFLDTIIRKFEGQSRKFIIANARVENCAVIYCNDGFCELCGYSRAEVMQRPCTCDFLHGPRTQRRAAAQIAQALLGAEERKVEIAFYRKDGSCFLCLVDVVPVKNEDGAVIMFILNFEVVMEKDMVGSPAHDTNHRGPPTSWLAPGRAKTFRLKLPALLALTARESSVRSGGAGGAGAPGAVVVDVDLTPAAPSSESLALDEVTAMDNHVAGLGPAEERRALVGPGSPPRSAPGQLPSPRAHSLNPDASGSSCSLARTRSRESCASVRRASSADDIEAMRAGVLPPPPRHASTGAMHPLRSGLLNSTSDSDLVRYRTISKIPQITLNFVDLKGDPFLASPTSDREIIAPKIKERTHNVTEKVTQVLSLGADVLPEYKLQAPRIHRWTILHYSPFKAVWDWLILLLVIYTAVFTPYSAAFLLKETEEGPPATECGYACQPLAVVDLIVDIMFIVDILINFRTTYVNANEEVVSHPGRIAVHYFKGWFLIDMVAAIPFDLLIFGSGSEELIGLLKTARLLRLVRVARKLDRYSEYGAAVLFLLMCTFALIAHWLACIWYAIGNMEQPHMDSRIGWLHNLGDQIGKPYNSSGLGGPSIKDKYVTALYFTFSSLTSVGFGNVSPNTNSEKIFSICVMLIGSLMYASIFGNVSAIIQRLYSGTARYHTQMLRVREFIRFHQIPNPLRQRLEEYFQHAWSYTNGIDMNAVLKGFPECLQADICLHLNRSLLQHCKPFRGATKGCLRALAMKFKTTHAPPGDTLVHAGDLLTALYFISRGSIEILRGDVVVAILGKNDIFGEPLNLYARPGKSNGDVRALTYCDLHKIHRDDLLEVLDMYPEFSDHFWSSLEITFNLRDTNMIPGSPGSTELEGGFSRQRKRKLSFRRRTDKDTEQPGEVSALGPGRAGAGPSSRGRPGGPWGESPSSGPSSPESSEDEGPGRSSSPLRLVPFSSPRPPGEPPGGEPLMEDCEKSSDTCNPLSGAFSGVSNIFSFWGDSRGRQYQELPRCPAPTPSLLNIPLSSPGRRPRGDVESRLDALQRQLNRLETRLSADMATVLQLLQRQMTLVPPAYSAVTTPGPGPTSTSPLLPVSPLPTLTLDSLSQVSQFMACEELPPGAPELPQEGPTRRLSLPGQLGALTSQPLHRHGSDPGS
row,SMILES,"hERG current change (%, negative = inhibition) at 1uM [%]"
1,COc1ccc(C(=O)NNC(=S)NC(=O)c2ccc(Cl)cc2)cc1,15.4
2,O=C(Nc1ccc(F)cc1)Nc1sccc1-c1nc2ccccc2s1,8.46
3,O=C(NCC1CCC(C(=O)O)CC1)c1cccnc1 (stereo not drawn),19.8
4,OCCN(CCO)c1ncnc2c1sc1nc(N3CCOCC3)c3c(c12)CCCC3,2.45
5,CCOC(=O)C1(C)/C(=N/Nc2cccc(Cl)c2)C(=O)C(=O)N1c1ccccc1 (stereo not drawn),11.3
6,CC(C)NC(=S)NNc1nc2ccccc2s1,3.34
7,NC(=O)c1ccc[n+](Cc2cccc3ccccc23)c1.[Br-],10.3
8,CC1CCc2cc(F)ccc2N1C(=O)c1ccncc1 (stereo not drawn),11.2
9,O=C(C1CC(c2ccccc2O)=NO1)N1CCc2ccccc2C1 (stereo not drawn),17.5
10,Cc1sc(NC(=O)c2ccc(F)cc2)c(CN2CCCCCC2)c1C,0.206
11,CCc1nnc(NS(=O)(=O)c2ccc(NC(=O)c3cc(Cl)ccc3OC)cc2)s1,9.12
12,O=C(CCC1CCN(C(=O)c2ccco2)CC1)NCc1ccc(F)cc1,-62
13,COc1ccc(CNC(=O)CN(Cc2ccccc2)C(=O)CCC(=O)Nc2nccs2)cc1,14
14,O=C(CSC(=S)N1CCCCC1)Nc1nc(-c2ccccc2)c(-c2ccccc2)o1,-11.6
15,O=C1CCCc2sc3c(c2N1)CCCCC3,-0.78
16,COc1nccnc1NS(=O)(=O)c1ccc(NC(=S)NC(=O)/C=C/c2ccccc2)cc1,3.31
17,COc1ccc(-c2nn3c(-c4cccc(C)c4)nnc3s2)cc1OC,18.3
18,O=C(NCCC1CCCCN1S(=O)(=O)c1ccccc1)C(=O)NCC1CCCO1 (stereo not drawn),7.26
19,CCCCCC(=O)NNC1=NCC(Cc2ccccc2)S1 (stereo not drawn),3.18
20,Cc1cccnc1CN1CCN(C(=O)CCc2nnc(CCc3ccccc3)o2)CC1,16.8
21,CC1NC(=O)N(C)C2NC(=O)N(C)C(c3ccccc3)C12 (stereo not drawn),11.1
22,CCCC(O)(c1ccc(Cl)cc1)C(CN1CCOCC1)c1ccccc1 (stereo not drawn),6.75
23,Cc1ccc(/C=N\NC(=O)c2ccc3c(c2)OCO3)o1,12.7

row,SMILES,"hERG current change (%, negative = inhibition) at 1uM [%]"
1,CSc1cccc(NC(=O)CN(C2CCCCC2)S(C)(=O)=O)c1,2.65
2,CCOc1ccc(N(CC(=O)NCc2ccccc2C)S(C)(=O)=O)cc1,-3.2
3,Cc1ccc(C(=O)N/C(=C\c2ccccc2)C(=O)NCc2cccnc2)cc1,-41.8
4,COc1cccc(-n2nnnc2SCC(=O)Nc2ccc(NC(C)=O)cc2)c1,9.32
5,O=C(N=C1SC2CS(=O)(=O)CC2N1Cc1ccccc1Cl)C1CC1 (stereo not drawn),10.1
6,COc1ccccc1CNC(=O)c1cnn2c(C(F)F)cc(C)nc12,-1.86
7,COc1cccc(C(CC(=O)NCCN2CCOCC2)NS(=O)(=O)c2ccc(C)cc2)c1OC (stereo not drawn),10.2
8,O=C(c1ccc([N+](=O)[O-])cc1)N1CCC(n2nnc3cc(F)ccc32)CC1,-14.5
9,CC(C)N(CCO)Cc1nc(C(c2ccccc2)c2ccccc2)no1,12
10,COc1ccccc1OC(=O)c1cc(Cl)nc2ccccc12,13.6
11,Cc1ccccc1-c1nc(SCc2ccccn2)c2c(=O)n(C)c(=O)n(C)c2n1,16.5
12,COc1ccc(Cl)cc1NC(=O)c1cc(-c2ccccc2)on1,15.2
13,Nc1ccc(-n2nncc2-c2ccc(Cl)cc2)cc1,-20.7
14,O=C(CSC1=NS(=O)(=O)c2cc(Cl)ccc2N1)NCc1ccccc1,6.77
15,O=C(COc1ccccc1)NCC(=O)NC1CCCCC1,9.67
16,CSC(=S)N/N=C/c1ccc(N(C)C)cc1,10.8
17,Cc1cc(C(=O)CN2C(=O)C(=O)N(C3CCCC3)C2=O)c(C)n1CCc1ccc(F)cc1,-1.74
18,O=C(Nc1nnc(-c2ccc(F)cc2)o1)c1cccc([N+](=O)[O-])c1,0.0123
19,CCOC(=O)c1csc(NC(=O)CC2CCCC2)n1,-5.99
20,Clc1ccccc1-c1nc2ccccc2[nH]1,9.27
21,CCOc1ccccc1NC(=O)CSc1nnc(CNC(=O)c2cccs2)o1,14.7
22,Cc1cccc(N2N=C(C(=O)Nc3nc(C)cs3)CCC2=O)c1,8.88
23,CN1CCN(CCC(=O)Nc2ccccc2)CC1,6.64

row,SMILES,"hERG current change (%, negative = inhibition) at 1uM [%]"
1,Cc1cccc[n+]1CC(=O)c1ccc(NC(=O)c2ccccc2)cc1.[Br-],18.6
2,Cc1cccc(C)c1OCCCN1CCOCC1.Cl,6.52
3,Nc1nonc1-n1nnc(C(=O)N/N=C/c2ccc3c(c2)OCO3)c1-c1ccccc1,16.9
4,CCCCN(CC)CCCNC(=O)c1cn(C)c2ccc(S(=O)(=O)N(C)C3CCCCC3)cc2c1=O,-66.6
5,CCn1cc(CNC(=S)Nc2cccc(Cl)c2C)cn1,6.82
6,Cc1cc(C(=O)CSc2nncn2C)c(C)n1-c1ccccc1,13.3
7,COC(=O)c1c(NC(=O)CN(c2ccccc2)S(C)(=O)=O)sc2c1CCCC2,15.5
8,Cc1ccc(C(=O)NC(C)c2ccc(C)c(C)c2)s1 (stereo not drawn),4.15
9,CN(CC(=O)Nc1ccc(F)cc1)C(=O)C1CCN(S(=O)(=O)c2ccc3c(c2)OCCO3)CC1,1.49
10,COc1cccc(C(=O)N2CCCC(CCC(=O)NCc3ccc(F)c(F)c3)C2)c1 (stereo not drawn),-3.6
11,Cc1ccc(OCC(=O)Nc2ccccc2N2CCCC2)c(C)c1,16.6
12,Cc1ccc(/C=N/NC(=O)CSc2nc3ccccc3c(=O)n2-c2ccccc2C)s1,-9.7
13,CCOC(=O)C1C(=O)NC(c2ccccc2)=NC1c1ccc(OC)cc1 (stereo not drawn),1.03
14,CCOC(=O)Cc1c(C)nc2c(C#N)c(C)nn2c1C,-2.82
15,CCOc1ccc(CN2CCNC(=O)C2CC(=O)NCc2csc(C)n2)cc1 (stereo not drawn),11.2
16,C/C(=N\O)C(C)NC(=O)c1ccccc1 (stereo not drawn),15.9
17,OCCC1CN(Cc2ccc3nsnc3c2)CCN1C1CCCC1 (stereo not drawn),-0.378
18,O=C(O)CCCC(=O)Nc1nc(-c2ccccc2)cs1,7.36
19,Cc1ccc(S(=O)(=O)Nc2ccccc2N2CCOCC2)cc1,9.74
20,Cc1c(CCC(=O)NCCCn2ccnc2)c(=O)oc2cc3oc4c(c3cc12)CCCC4,-6.14
21,O=C(Oc1cccc(C(=S)N2CCOCC2)c1)c1ccc([N+](=O)[O-])cc1[N+](=O)[O-],-1.22
22,O=C(Nc1ccc(S(=O)(=O)N2CCC(C(=O)NC3CCCCC3)CC2)cc1)c1ccco1,13.3
23,CCCCCC(=O)N/N=C/c1ccccc1[N+](=O)[O-],18

row,SMILES,"hERG current change (%, negative = inhibition) at 1uM [%]"
1,CC(C)OCCCNCc1cccs1,3.82
2,COc1ccc(Cn2c(C3CC3)nc3ccc(NC(=O)c4ccco4)cc3c2=O)cc1,8.43
3,CC(=O)Nc1sc2c(c1C#N)CCN(Cc1ccccc1)C2.Cl,14.9
4,Cc1ccc(NS(=O)(=O)c2ccc3c(c2)n(C)c(=O)c(=O)n3C)c(C)c1,8.07
5,COC(=O)C1C(=O)C(C(=O)c2ccccc2)C(=O)CC1(C)C (stereo not drawn),2.02
6,C/C(=N\O)C(C)(C)Nc1ccccc1F,-0.0536
7,Cc1cc2cc(CNC(=S)Nc3ccc(OC(F)(F)F)cc3)ccc2n1C,19.5
8,CCN(CC)c1ccc(-c2nn3c(-c4ccccc4OC)nnc3s2)cc1,19.3
9,O=c1cc2ncc(-c3[nH]ncc3[N+](=O)[O-])cn2[nH]1,14.6
10,COc1ccc(OC)c(NC(=O)CCc2nnc3ccc(N4CCC(C)CC4)nn23)c1,4.58
11,Cc1cc(Br)ccc1NC(=O)CNC(=O)CSc1ncccn1,0.756
12,COc1ccc(CC(=O)Nc2nccs2)cc1OC,-4.27
13,O=[N+]([O-])c1ccccc1S(=O)(=O)NCc1cccnc1,13.1
14,O=c1[nH]c(O)c(N=Nc2cc([N+](=O)[O-])ccc2O)c(=O)[nH]1,7
15,COCCCNC(=O)c1cccn2c(=O)c3cc4ccccc4cc3nc12,-8.65
16,CCOC(=O)N1CCN(C(=O)CCNS(=O)(=O)c2ccc3c(c2)c(=O)n(C)c(=O)n3C)CC1,19.1
17,COc1ccc(OC)c(NS(=O)(=O)c2c(C)nc3sccn3c2=O)c1,-2.3
18,CCCc1cc(=O)[nH]c(SCC(=O)NCCCC(=O)OCC)n1,5.89
19,O=C(Nc1ccc2c(c1)OCCO2)c1cccs1,5.45
20,COc1ccc(CNC(=O)C(C)OC(=O)C23CC4CC(CC(O)(C4)C2)C3)cc1 (stereo not drawn),17.8
21,CC(=O)Nc1ccc(S(=O)(=O)NC2(C(F)(F)F)C(=O)Nc3c2c(=O)[nH]c(=O)n3Cc2cccnc2)cc1 (stereo not drawn),16.5
